The results in this text go back to article PMC6451091.

Common to all, as to details: 20 mM HEPES pH 7.9, 100 mM NaCl, 1 mM DTT, 0.2 mg/mL BSA, 0.02% Triton X-100, 2% milk, 0.4 mg/mL salmon testes DNA; 1 h; temperature not stated; high values mean tight binding; double strand, one strand shown; sequences stand for … in GCCTAGCAC…GTGCTAGGTCTTGATTCGCTTGACGCTGCTG
One experiment concerns the target PU.1 (IVT) (UniProt P17947). The experiment is described as follows: protein-binding microarray (PBM).
For experiment [1], the target named is PU.1 (endogenous, THP-1 nuclear extract) (UniProt P17947). The experiment is described as follows: nuclear extract protein-binding microarray (nextPBM).
Experiment [2] addresses T1, FLI1 (endogenous, THP-1 nuclear extract) (UniProt Q01543).
T1 sequence: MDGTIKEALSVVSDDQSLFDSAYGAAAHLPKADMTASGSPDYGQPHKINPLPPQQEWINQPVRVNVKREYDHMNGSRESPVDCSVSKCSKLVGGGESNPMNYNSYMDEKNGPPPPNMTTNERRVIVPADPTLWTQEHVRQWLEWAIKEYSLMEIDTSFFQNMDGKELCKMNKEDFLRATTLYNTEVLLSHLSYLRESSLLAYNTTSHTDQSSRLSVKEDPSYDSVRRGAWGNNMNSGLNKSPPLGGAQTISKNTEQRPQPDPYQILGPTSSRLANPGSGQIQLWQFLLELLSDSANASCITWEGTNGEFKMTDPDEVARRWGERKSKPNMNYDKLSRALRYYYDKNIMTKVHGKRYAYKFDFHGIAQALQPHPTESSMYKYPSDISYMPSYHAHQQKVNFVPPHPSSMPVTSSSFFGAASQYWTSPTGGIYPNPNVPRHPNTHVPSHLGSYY
Described as above.

The other results are listed elsewhere or left out. For part of these data: At the low end of the ranking the order means little. For part of these data: Measured with an extract: partners may take part in the binding.

GAGAAGGGGAAGTGAGACAG: the binding signal was 5 z-score with PU.1 (IVT), 5.77 z-score in experiment [1] and 2.51 z-score in experiment [2].
Consider GATAAGGGGAAGTCCTCTGT, for which the binding signal with PU.1 (IVT) turned out to be 5.04 z-score; in experiment [1], 5.73 z-score; in experiment [2], 2.32 z-score.
With TGGAGGAGGAACTGAAATAC, the binding signal with PU.1 (IVT) came to 2.94 z-score; in experiment [1], 2.75 z-score; in experiment [2], 1.07 z-score.
As to TAAAAGAGGAAATGAGAAAC, the results for the binding signal (with PU.1 (IVT); in experiment [1]; in experiment [2]) were 5.33 z-score, 5.68 z-score and 3.01 z-score, respectively.
In the case of TAATAGAGGAACTGAAAATA, the binding signal was 4.27 z-score with PU.1 (IVT), 4.58 z-score in experiment [1] and 1.51 z-score in experiment [2].
As for AGAAAAGGGAAGTGAGGGAA, the binding signal turned out to be 6.48 z-score with PU.1 (IVT), 6.82 z-score in experiment [1] and 3.24 z-score in experiment [2].
As to AATATGAGGAACTGCCAGCG, the values for the binding signal (with PU.1 (IVT); in experiment [1]; in experiment [2]) were 4.27 z-score, 4.45 z-score and 1.31 z-score, respectively.
In the case of CAAAAAGGGAAGTGGGTGCT, the binding signal in the experiment with PU.1 (IVT) is 7.29 z-score; in experiment [1] it was 6.78 z-score; in experiment [2], 3.14 z-score.
With CAAATGAGGAAATGTGGCTT, the binding signal with PU.1 (IVT) is 3.55 z-score; in experiment [1] it was 3.88 z-score; in experiment [2], 1.77 z-score.
Regarding TTGAAAAGGAAGTGCAACAA, the binding signal with PU.1 (IVT) came to 2.73 z-score; in experiment [1], 2.29 z-score; in experiment [2] it was 2.19 z-score.
As to AGAGAGGGGAAGTGTGCTCC, the binding signal with PU.1 (IVT) worked out at 3.47 z-score; in experiment [1] it was 3.2 z-score; in experiment [2] it was 2.12 z-score.
The corresponding values for AAAGAAGGGAAGTGACTTGC are 3.86 z-score, 3.66 z-score and 1.89 z-score.
With TGGAAGAGGAAATGTTTCTG, the binding signal with PU.1 (IVT) came to 2.62 z-score; in experiment [1], 2.06 z-score; in experiment [2] it was 2.26 z-score.
Regarding GTAATGAGGAAGTAAATGCA, the results for the binding signal (with PU.1 (IVT); in experiment [1]; in experiment [2]) were 6.98 z-score, 7 z-score and 2.7 z-score, respectively.
AGGAAGGGGAAGTGGTAATT: the binding signal with PU.1 (IVT) was 5.78 z-score; in experiment [1], 6.3 z-score; in experiment [2] it was 3.27 z-score.
TATAAGAGGAAGTCCTCTGT: the binding signal in the experiment with PU.1 (IVT) is 5.4 z-score; in experiment [1], 6.27 z-score; in experiment [2], 3 z-score.
On the same counts, the results for GGTTTGAGGAAGTGGATCAT are 6.52 z-score, 6.49 z-score and 3.18 z-score.
Consider CAACTGAGGAACTGATGCGG, for which the binding signal with PU.1 (IVT) is 1.56 z-score; in experiment [1] it was 1.49 z-score; in experiment [2], 0.502 z-score.
GGGAACAGGAACTGAGACAT: the binding signal with PU.1 (IVT) amounted to 2.44 z-score; in experiment [1], 2.61 z-score; in experiment [2], 2.13 z-score.
TGAAAGAGGAAATGAATCAC: the figures for the binding signal (in the experiment with PU.1 (IVT); in experiment [1]; in experiment [2]) were 4.38 z-score, 4.68 z-score and 3.04 z-score, respectively.
The corresponding values for ACAAAAAGGAACTGTGCGCC are 1.88 z-score, 1.62 z-score and 0.725 z-score.
Turning to CAAAAAGGGAAGTGGATGCT, the results for the binding signal (with PU.1 (IVT); in experiment [1]; in experiment [2]) were 6.64 z-score, 6.66 z-score and 2.73 z-score, respectively.
In the case of GAGGAGAGGAAGTGAAAACA, the binding signal in the experiment with PU.1 (IVT) is 4.19 z-score; in experiment [1] it was 4.12 z-score; in experiment [2], 2.97 z-score.
On the same counts, the results for CAAATTAGGAAGTGCAGAAG are 4.02 z-score, 3.91 z-score and 2.04 z-score.
On the same counts, the results for AAATAAAGGAACTGCTTTAA are 3.07 z-score, 3.01 z-score and 1.02 z-score.
As for ACGAAAAGGAACTGTGCCCC, the binding signal with PU.1 (IVT) turned out to be 0.94 z-score; in experiment [1], 0.985 z-score; in experiment [2] it was 0.486 z-score.
As to TAAATGGGGAAGTCACATAT, the binding signal with PU.1 (IVT) was found to be 6.17 z-score; in experiment [1], 6.6 z-score; in experiment [2], 2.4 z-score.
The corresponding values for GGAAAGAGGAACAGAGTAGG are 3.92 z-score, 4.84 z-score and 1.53 z-score.
Take AATTAAAGGAAGTGATTCTA: the binding signal with PU.1 (IVT) is 4.22 z-score; in experiment [1], 3.89 z-score; in experiment [2], 2.54 z-score.
For AAAAAAACGAACTGGCTAGA, the binding signal with PU.1 (IVT) is -0.129 z-score; in experiment [1], 0.0306 z-score; in experiment [2], -0.521 z-score.
Take AAAATGAGGAAGTGCTGGCA: the binding signal with PU.1 (IVT) was found to be 8.14 z-score; in experiment [1], 7.45 z-score; in experiment [2] it was 4.04 z-score.
